# Reference: PMC12040169 (PLOS Biology, 2025)
# Some of the results follow.
# System: T1, C. trachomatis L2/434/Bu expressing GFP (CTL2-GFP)
# T1 construct: L2/434/Bu GFP intracellular growth in HeLa cells
# Design: species or system HeLa; C. trachomatis total inclusion area by high-content imaging, normalised to DMSO
# Conditions: total inclusion area; 28.5 h, 10 µM; inhibitor
# How it was run: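 Host cell viability was gauged from Hoechst-stained nuclei counts, while chlamydial growth was taken from total inclusion area and inclusion number per well. Cells were fixed and imaged by high-content microscopy once bulk GFP and resorufin fluorescence had been measured.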
row,Structure (SMILES),% of control remaining
1,Cn1c(=O)c2ncn(CC(=O)Nc3cccc(C(=O)O)c3)c2n(C)c1=O [CBK266838],104.415
2,CC(C)(CNC(=O)Cn1cccc(C(=O)NC2CCCCC2)c1=O)c1ccccc1F [CBK286068],123.114
3,COC(=O)c1ccc2c(=O)n(CC3CCCO3)c(SCCO)nc2c1 (stereo not drawn) [CBK306041],48.226
4,Cc1cc(Cl)c(OCCN2CCC(C)CC2)c(Br)c1 [CBK265088G],100.566
5,Nc1cccc(-c2cn(C[C@H]3CC4CCN3C[C@@H]4C(=O)NCc3cccnc3)nn2)c1 (stereo partly drawn) [CBK289088],117.374
6,COc1cccc2[nH]c(C(=O)N3CCOC(c4cccc(-c5c(F)cccc5F)n4)C3)cc12 (stereo not drawn) [CBK285948],72.3783
7,Cc1nc2c(c(=O)[nH]1)CCN(Cc1cn(C(C)C)c3ccccc13)C2 [CBK283991],78.0169
8,CCCCCn1c(-c2ccccc2)n[nH]c1=O [CBK013288],81.2199
9,O=c1c2ccccc2nc2n1CCN(Cc1cccs1)CC2 [CBK284815],106.859
10,CC(C)C(NC(=O)c1cccc(-n2cnnc2)c1)c1cccs1 (stereo not drawn) [CBK282442],114.583
11,CCCCNCCOC1CCC[C@@H]1Cl (stereo partly drawn) [CBK009839],72.2113
12,CC(=O)Nc1cccc(C(=O)NC2CC(=O)N(C3CCCCCC3)C2)c1 (stereo not drawn) [CBK307455],53.1924
13,CC(NC(=O)N1CCN(c2cc(C(F)(F)F)ccn2)CC1)c1ccccc1 (stereo not drawn) [CBK162350],102.269
14,Cc1cc(CN2CCN(C(=O)NCCc3ccccn3)CC2)on1 [CBK305637],82.1989
15,CCCCOc1ccc(Sc2nc(C)cc(C)n2)cc1 [CBK009219],67.4176
16,Oc1n[nH]c(-c2ccccc2Cl)c1Cc1c(Cl)cccc1Cl [CBK107935],136.196
17,Cc1nc(CN2CCCC(NCc3ccc4ccccc4c3)C2)no1 (stereo not drawn) [CBK305160],32.5781
18,O=C(CSc1nnc(-c2ccccc2O)n1-c1ccccc1)Nc1ccc(N2CCOCC2)cc1 [CBK267874],88.59
19,Cc1cc(N2CCCC2=O)cc(C)c1S(N)(=O)=O [CBK288458],68.431
20,c1cnc2[nH]c(C3CCCC3)c(CN3CCOCC3)c2c1 [CBK285337],87.8016
21,Cc1c(C(=O)C2=C(O)C(=O)N(Cc3cccnc3)C2c2ccncc2)cnn1-c1ccccc1 (stereo not drawn) [CBK233899],108.54

row,Structure (SMILES),% of control remaining
1,CCN1CCN(C(=O)c2ccc3ccccc3n2)CC1 [CBK200249],96.8124
2,NC(=O)CCC(NC=O)C(=O)O (stereo not drawn) [CBK260967],102.216
3,CC(C)CN1C(=O)COC[C@@H]1[C@H](O)c1ccc(NC(=O)C2CCCCC2)cc1 [CBK289687],114.383
4,N#C/C(=C\c1c[nH]nc1-c1ccccc1)c1nc(-c2cccc([N+](=O)[O-])c2)cs1 [CBK267252],117.67
5,O=C(NC1CCS(=O)(=O)C1)c1cnc2c(Cl)cccc2c1O (stereo not drawn) [CBK304644],83.0045
6,CCCNC(c1ccccc1)c1ccncc1 (stereo not drawn) [CBK028505],59.1009
7,Cc1cc2c(s1)c1cnn(CC(=O)OC(C)C)c(=O)c1n2C [CBK284247],67.114
8,CC(C(=O)N[C@H]1C2CCCCC2[C@@H]1c1ccccc1)N1CCOCC1 (stereo partly drawn) [CBK282964],106.825
9,CN(Cc1cccc(C#N)c1)Cc1nc2c(cnn2C)c(=O)[nH]1 [CBK305973],18.9094
10,CN(CC1(C)COC1)C(=O)C(c1ccc(F)cc1)N(C)C (stereo not drawn) [CBK281722],102.298
11,COc1ccccc1NC(=O)C1C2NC(=S)NC1(C)Oc1c(OC)cccc12 (stereo not drawn) [CBK269013],105.239
12,CSc1cc(-c2cccs2)[nH]c(=O)c1C#N [CBK006350],63.312
13,O=C(NCC1CCCCC1)C1(Cc2ccc(-c3ccncc3)cc2)CCOCC1 [CBK285564],101.005
14,COc1ccc(N(Cc2cccnc2)C(=O)c2ccc(-c3ccccc3)[nH]c2=O)cc1 [CBK283089],87.4153
15,COc1ccc(C(C)C)cc1-c1nccnc1NCC1COC(C)(C)O1 (stereo not drawn) [CBK036930],110.091
16,CN1CCN(S(=O)(=O)c2cccc3nsnc23)CC1 [CBK062428],88.3905
17,NNC(=O)COc1ccc2ccccc2c1 [CBK261208],105.431
18,Cc1csc(NC(=O)c2cc(S(=O)(=O)N3CCCC3)cn2C)n1 [CBK295617],103.683
19,Nc1nc(C2COc3ccccc3O2)ncc1S(=O)(=O)c1ccc(Cl)cc1 (stereo not drawn) [CBK074808],75.4366
20,COc1ccc(Cn2nc(NC(=O)c3cn(C)c4ccccc34)c3ccccc32)cc1 [CBK048344],89.4758
21,COC(=O)c1sccc1NC(=O)/C=C/c1ccccc1 [CBK057041],123.592

row,Structure (SMILES),% of control remaining
1,CC(C)Cc1ccc(S(=O)(=O)Nc2ccc(C(=O)O)cc2)cc1 [CBK297930],51.7537
2,CCOc1cc(CNC2C3CC4CC(C3)CC2C4)cc(Cl)c1OCC(N)=O (stereo not drawn) [CBK265734C],143.246
3,CC(C)(C)OC(=O)N1CCCCC1(C)c1nnc(-c2cccnc2)o1 (stereo not drawn) [CBK304714],31.9474
4,COc1ccc(C(=O)Nc2ccccc2O)cc1S(=O)(=O)N1CCCCC1 [CBK269665],85.1346
5,C=CCNc1nccnc1-c1cnc(OC)nc1OC [CBK036922],95.9656
6,c1cncc(OCCOc2nsnc2N2CCNCC2)c1 [CBK001825G],67.2242
7,O=C(COc1ccc2ccccc2c1)Nc1ccc(N2CCN(Cc3ccccc3)CC2)cc1 [CBK266104],89.6563
8,COc1ccc(-c2nnc(SCC(=O)c3ccc(F)cc3)n2C2CCCCC2C)cc1 (stereo not drawn) [CBK297494],95.1138
9,N#CCCSc1ccn(C2CC(O)C(CO)O2)c(=O)n1 (stereo not drawn) [CBK201261],140.989
10,CCS(=O)(=O)NC1CCN(c2nc(C(F)(F)F)nc3ccsc23)CC1 [CBK304593],47.2681
11,c1cncc(CNCc2ccoc2)c1 [CBK001744C],94.6081
12,CCc1nc2ccc(C(=O)N(C)CCN(C)C)cn2c1N(C)C(=O)Cc1ccccc1 [CBK146858],96.2233
13,O=S(=O)(NCc1ccccn1)c1ccc(Br)cc1Br [CBK262291],70.1993
14,O=C(Nc1cccc2ncccc12)c1cccc(Oc2ccccc2)c1 [CBK296716],66.1939
15,COc1cc(-c2cc(C(=O)O)c3c(-c4ccc(C)cc4)n[nH]c3n2)ccc1O [CBK287268],68.0414
16,Cc1ccc(C(=O)NC(CC(C)C)c2nnc3n2CCNCC3)c(F)c1 (stereo not drawn) [CBK306817],87.9114
17,NC(=O)C1CCN(Cc2cc3c(cc2[N+](=O)[O-])OCO3)CC1 [CBK261885],92.4412
18,O=C(Cn1nnc(-c2ccccc2Cl)n1)N/N=C/c1cn(Cc2ccc(Cl)cc2)c2ccccc12 [CBK262333],58.7862
19,COc1ccc(C)cc1S(=O)(=O)N(C)CC(=O)Nc1cccc(C(C)=O)c1 [CBK268753],107.442
20,COCC(=O)NCc1cc2n(n1)CCN(Cc1cccs1)C2 [CBK307085],108.886
21,Cc1cc(C2CCCCCN2S(=O)(=O)c2ccc3[nH]c(=O)[nH]c(=O)c3c2)on1 (stereo not drawn) [CBK286405],94.4219

row,Structure (SMILES),% of control remaining
1,CCOCCn1cnc2sc(C(=O)Nc3cccc(Cl)c3)c(C)c2c1=O [CBK071854],88.0189
2,CCN(CC)CCN(C(=O)Nc1ccc(C(N)=O)cc1)C(C)c1ccc(OC)c(OC)c1 (stereo not drawn) [CBK158962],85.5692
3,CCn1cc(-c2cncn2CCOc2ccc(C)cc2)cn1 [CBK281623],111.182
4,Cc1cc(COc2cc(N3CCCN(Cc4ccc5c(c4)OCO5)CC3)ncn2)no1 [CBK083335T],105.736
5,Cc1oc(C2CC2)cc1C(=O)N1CCn2c(nnc2C2CC2)C1 [CBK283687],50.162
6,Cc1n[nH]c(C)c1Sc1ccccc1/N=C/c1ccc(C(=O)O)cc1 [CBK262055],79.2755
7,CCOC(=O)CCCNC(=O)N1CCN(Cc2ccccc2)CC1 [CBK155664],102.936
8,CN(C)[C@@H]1CN(Cc2cccnc2)C[C@H]1c1cn(C)c2ccccc12 [CBK284875],80.763
9,COc1ccc(-c2nc3c(c(=S)[nH]2)CCCC3)cc1 [CBK020440],56.5733
10,COc1cccc2cc(C(=O)NCCCN3CCN(C)CC3)oc12 [CBK149788],89.1088
11,O=[N+]([O-])c1cccc(-c2ccc(OC3CCNCC3)cc2)c1 [CBK126465T],60.3403
12,O=C(NCc1cccnc1)N1CCN(CCc2ccccc2)CC1 [CBK158906],98.5163
13,CC1CCc2c(sc3ncnc(OCC(=O)N4CCNC4=O)c23)C1 (stereo not drawn) [CBK305775],102.889
14,Cc1nc2c(c(CCC(=O)O)n1)CCCC2 [CBK023157],57.5364
15,Cn1nnnc1-c1cccc(NC(=O)c2ccc(Oc3ccccc3)cc2)c1 [CBK297872],37.9672
16,COc1ccc(NC(=O)C(=O)NCc2ccncc2)cc1 [CBK287723],89.1736
17,O=C(CSc1nnc(COc2ccccc2)o1)c1cccc([N+](=O)[O-])c1 [CBK267868],103.387
18,Cc1nn(CC(=O)NC2CCCCC2)c(=O)c2cc3ccsc3n12 [CBK284080],96.5841
